In the RNAGym collection of RNA variant scans (doi:10.1073/pnas.2313332121):
Variants at the background level are over-represented here.

B1: TPR 5TU (parent)
chain: GGAUCUUCUCGAUCUAACAAAAAAGACAAAUCUGCCACAAAGCUUGAGAGCAUCUUCGGAUGCAGAGGCGGCAGCCUUCGGUGGCGCGAUAGCGCCAACGUUCUCAACUAUGACACGCAAAACGCGUGCUCCGUUGAAUGGAGUUUAUCAUG

Variants of: B1
Test: polymerase ribozyme fitness, log enrichment relative to wild type (log ratio); higher = more active; in vitro selection for triplet polymerase activity
Procedure, shortened: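 Mutant libraries were PCR-built and transcribed for each subunit of a heterodimeric triplet polymerase ribozyme and selected for one round in triplicate at −7 °C, frozen, before gel excision of extended constructs and streptavidin-bead capture. Input and output libraries were Illumina-sequenced, keeping genotypes with ≥10 input reads and ≥1 read per output. Fitness is a logarithmic ratio of genotype to wild-type enrichment, in base 2, using inverse-variance-weighted replicate averages.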

| Variant | polymerase ribozyme fitness (log ratio) |
| --- | --- |
| GGAUCUUCUCGAUCUAACAAAAAAGACAAAUCUGCCACAAAGCUUGAGCGCAUCUUCGGAUGCAGAGGCGGCAGCCUUCAGCGGCGGGAUAGCACCAACGUUCUCAACUAUGACACGCUAAACGCGUGCUCCGGUGAAUGGAGUUUAUCAUG [A49C G80A U82C C87G G94A A119U U134G] | ≤ -4.2 |
| GGAUCUUCUCGAUCUAACAAAAAAGACAAAUCUGCCACAAAGCUUGAGCGCAUCUUCGGAUGCAGAGGCGGCAGCCUUCGCUGGCGCGAUAGCGCCAACGUUCUCAACUAUGACACGCAAAACGCGUGCUCCGUUGAAUGGAGUUUAUCAUG [A49C G81C] | ≤ -4.2 |
| GGAUCUUCUCGAUCUAACAAAAAAGACAAAUCUGCCACAAAGCUUGAGCGCAUCUUCGGAUGCAGAGGCGGCAGCCUUCGUUGGCGCGAUAGCACCAACGUUCUCAACUAUGACGCGCAAAACGCGUGCUCCGUUGAAUGGAGUUUAUCAUG [A49C G81U G94A A115G] | ≤ -4.2 |
| GGAUCUUCUCGAUCUAACAAAAAAGACAAAUCUGCCACAAAGCUUGAGCGCAUCUUCGGAUGCAGAGGCGGCAGCCUUCGUUGGCGCGAUAGCUCCAACGUUCUCAACUAUGACACGCAAAACGCGUGCUCCGUUGAAUGGAGUUUAUCAUG [A49C G81U G94U] | ≤ -4.2 |
| GGAUCUUCUCGAUCUAACAAAAAAGACAAAUCUGCCACAAAGCUUGAGCGCAUCUUCGGAUGCAGAGGCGGCAGCCUUCGGUAGCGCGAUAGCGCCAACGUUCUCAACUAUGACACGCAAAACGCGUGGUCCGUUGAAUGGAGUUUAUCAUG [A49C G83A C129G] | ≤ -4.2 |
| GGAUCUUCUCGAUCUAACAAAAAAGACAAAUCUGCCACAAAGCUUGAGCGCAUCUUCGGAUGCAGAGGCGGCAGCCUUCGGUCGCGCGAUAGCGCCAACGUUCUCAACUAUGACACGCAAAACGCGUGCUCCGUUGAAUGGAGUUUAUCAUG [A49C G83C] | ≤ -4.2 |
| GGAUCUUCUCGAUCUAACAAAAAAGACAAAUCUGCCACAAAGCUUGAGCGCAUCUUCGGAUGCAGAGGCGGCAGCCUUCGGUCGGGCGGUAGCGCCAACGUUCUCAACUAUGACACGCAAAACGCGUGCUCCGUAGAAUGGAGUUUAUCAUG [A49C G83C C85G A89G U135A] | ≤ -4.2 |
| GGAUCUUCUCGAUCUAACAAAAAAGACAAAUCUGCCACAAAGCUUGAGCGCAUCUUCGGAUGCAGAGGCGGCAGCCUUCGGUGUCGCGAUAGCGCCAACGUUCUCAGCUAGGACACGCAGAACGCGUGCUCCGUUGAAUGGAGUUUAUCAUG [A49C G84U A107G U111G A120G] | ≤ -4.2 |
| GGAUCUUCUCGAUCUAACAAAAAAGACAAAUCUGCCACAAAGCUUGAGCGCAUCUUCGGAUGCAGAGGCGGCAGCCUUCGGUGGCGCUAUAGCGCCAACGUUCUCAACUAUGACACGCAAAACGCGUGCUCAGUUGAAUGGAGUUUAUCAUG [A49C G88U C132A] | ≤ -4.2 |
| GGAUCUUCUCGAUCUAACAAAAAAGACAAAUCUGCCACAAAGCUUGAGCGCAUCUUCGGAUGCAGAGGCGGCAGCCUUCGGUGGCGCGAUAGCGCCAACGUUCUCAACUAUGACACGCAAAACGCGUGCUCCGUUGAAUGUAGUUUAUCAUG [A49C G141U] | -3.13 |
| GGAUCUUCUCGAUCUAACAAAAAAGACAAAUCUGCCACAAAGCUUGAGCGCAUCUUCGGAUGCAGAGGCGGCAGCCUUCGGUGGCGCGAUAGCGCCAACGUUCUCAACUAUGACACGCAAAACGCGUGCUCCGUUGAAUGGAGUUUAUCAUU [A49C G152U] | ≤ -4.2 |
| GGAUCUUCUCGAUCUAACAAAAAAGACAAAUCUGCCACAAAGCUUGAGCGCAACUUCGAAUGCAGAGUCGGCAGCCUUCGGUGGCGCUAUAGCGCCAACGUUCUCAACUAUGACACGCAAAACGCGUGCUCCGGUGAAUGGAGUUUAUCAUG [A49C U53A G59A G68U G88U U134G] | ≤ -4.2 |
| GGAUCUUCUCGAUCUAACAAAAAAGACAAAUCUGCCACAAAGCUUGAGCGCAACUACGGAUGCAGAGGCGGCAGCCUUCGGUGGCGCCAUAGCGCCAACGUUCUCAACUAUGUCACGCAAAACGCGUGCUCCGUUGAAUGGCGUUUAUCAUG [A49C U53A U56A G88C A113U A142C] | ≤ -4.2 |
| GGAUCUUCUCGAUCUAACAAAAAAGACAAAUCUGCCACAAAGCUUGAGCGCAGCUCCGGAUGCAGAGGCGGCAGCCUUCGGUGGCGCGAUAGCGCCAACGUUCUCAACUAUGACACGCCAAACGCGUGCUCCGUUGAAUGGAGUUUAUCAUG [A49C U53G U56C A119C] | ≤ -4.2 |
| GGAUCUUCUCGAUCUAACAAAAAAGACAAAUCUGCCACAAAGCUUGAGCGCAUCAUCGGAUGCAGAGGCUGCAGCCUUCGGUGACGCGAUAGCGCCAACGUUCUCCACUAUGAUACGCUAAACCCGUGCUCCGUUAAAUGGAGUUUAUCAUG [A49C U55A G70U G84A A106C C114U A119U G124C G136A] | ≤ -4.2 |
| GGAUCUUCUCGAUCUAACAAAAAAGACAAAUCUGCCACAAAGCUUGAGCGCAUCAUCGGAUGCAGAGGCGGCAGCCUUCGGUGGCACGAUAGCGCCAAGGUUCUCAACUAUGACACGCAAAACGCGUGCUCCGUUGAAUGGUGUUUAUCAUG [A49C U55A G86A C99G A142U] | ≤ -4.2 |
| GGAUCUUCUCGAUCUAACAAAAAAGACAAAUCUGCCACAAAGCUUGAGCGCAUCGUCGGUUGCAAAGGCGGCACCCAUCGGUGGCGCGAUAGCGCCAACGUUCUCAACUAUGACACGCAAAACGCGUGCUCCGUUGAAUGGAGUUUAUCAUG [A49C U55G A60U G65A G74C U77A] | ≤ -4.2 |
| GGAUCUUCUCGAUCUAACAAAAAAGACAAAUCUGCCACAAAGCUUGAGCGCAUCUACGGAUGCAGAGGCGGCAGCCUUCGGUGGCGCGAUAGCGCCAACGUUCUCAACUAUGACACGCAAAACGCGUGCUCCGUUGAAUGGAGUUUAUCAUG [A49C U56A] | ≤ -4.2 |
| GGAUCUUCUCGAUCUAACAAAAAAGACAAAUCUGCCACAAAGCUUGAGCGCAUCUACGGAUGCUGAGGCGGCAGGCUUCGGUGGCGCGAUAGUGCCAAGGUUCUCAACUAUGACACGCAAAACGCGUGCUCCGUUGAAUGGAGUUUAUCAUG [A49C U56A A64U C75G C93U C99G] | ≤ -4.2 |
